Whole data set: some 33,000 sequences, median “E-score (-0.5 to 0.5)” near -0.021, cut for the highest 2% near 0.32. This is one part of the list.

In this experiment the target is T1, Zap1 (UniProt P47043).
T1 sequence: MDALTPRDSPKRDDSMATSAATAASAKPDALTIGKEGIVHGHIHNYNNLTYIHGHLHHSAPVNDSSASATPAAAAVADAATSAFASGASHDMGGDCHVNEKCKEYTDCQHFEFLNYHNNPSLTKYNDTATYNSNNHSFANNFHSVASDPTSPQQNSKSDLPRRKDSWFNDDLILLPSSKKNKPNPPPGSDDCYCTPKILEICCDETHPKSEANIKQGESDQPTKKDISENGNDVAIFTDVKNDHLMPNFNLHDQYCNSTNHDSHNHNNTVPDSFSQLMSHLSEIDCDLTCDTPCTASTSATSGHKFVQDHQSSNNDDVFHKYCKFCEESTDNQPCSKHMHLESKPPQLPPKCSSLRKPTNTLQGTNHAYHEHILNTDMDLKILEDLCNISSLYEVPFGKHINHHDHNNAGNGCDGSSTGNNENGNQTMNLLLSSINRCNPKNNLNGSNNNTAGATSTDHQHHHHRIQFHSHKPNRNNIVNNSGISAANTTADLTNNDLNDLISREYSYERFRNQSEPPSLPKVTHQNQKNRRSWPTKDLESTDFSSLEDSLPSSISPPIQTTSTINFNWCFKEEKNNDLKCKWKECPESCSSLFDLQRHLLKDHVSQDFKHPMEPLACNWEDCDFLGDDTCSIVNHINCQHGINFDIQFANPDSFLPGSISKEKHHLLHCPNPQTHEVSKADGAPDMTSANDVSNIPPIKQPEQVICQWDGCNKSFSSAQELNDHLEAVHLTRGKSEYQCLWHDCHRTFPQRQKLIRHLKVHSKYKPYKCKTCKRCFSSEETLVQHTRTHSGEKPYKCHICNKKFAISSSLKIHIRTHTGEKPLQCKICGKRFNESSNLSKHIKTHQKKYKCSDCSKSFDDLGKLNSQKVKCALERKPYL
Description: PBM E-score (8-mer binding enrichment) (E-score (-0.5 to 0.5)); higher = stronger / more preferred TF binding; most listed sequences are background and not binding sites. As to conditions: protein concentration: 200 nM; construct: GST-full length. The method, boiled down:
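The E-score, a modified Wilcoxon-Mann-Whitney statistic, was computed by the Universal PBM Analysis Suite for every ungapped eight-base word pooled with its reverse complement. Scans behind it were normalised with masliner after bound GST-tagged yeast transcription factors were detected with fluorescent anti-GST. The proteins, at about 100-200 nM, had been applied to universal all-10-mer Agilent arrays made double-stranded by primer extension.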
Turning to ATTCTGGC, the “PBM E-score” value is -0.0503.

On to AAAAATCC, for which the “PBM E-score” value is -0.0127.

As for ACGTGAAG, the “PBM E-score” value was -0.0826.

In the case of ATGAGCAC, the “PBM E-score” value was -0.101.

As to CCACGTAC, the “PBM E-score” value was -0.0507.

CAGCGAGA: the “PBM E-score” value was -0.173.

In the case of AGCTATAA, the “PBM E-score” value worked out at 0.162.

Turning to CGGGGAAG, the “PBM E-score” value was -0.15.

Regarding CCAAGACC, the “PBM E-score” value turned out to be 0.00186.

For the sequence CTTTTTCA, the “PBM E-score” value stood at 0.178.

As for ATCGTTCA, the “PBM E-score” value stood at 0.092.

Take AGATATAA: the “PBM E-score” value turned out to be 0.169.

For the sequence CTAAAGAC, the “PBM E-score” value was -0.0654.

As to AGGGAACG, the “PBM E-score” value is -0.179.

On to AACCTATT, for which the “PBM E-score” value amounted to 0.281.

In the case of ACTGATTG, the “PBM E-score” value is -0.0958.

Consider CCCTAAGA, for which the “PBM E-score” value was 0.263.

Turning to ATCCACCC, the “PBM E-score” value was -0.023.

With ACCTGGCG, the “PBM E-score” value was -0.0533.

For the sequence TCAGTGAA, the “PBM E-score” value worked out at 0.0126.

Take CCATGATC: the “PBM E-score” value stood at 0.106.

With GGCCTAAC, the “PBM E-score” value amounted to 0.0974.

For CAACTGCC, the “PBM E-score” value was -0.151.

GCTAGGGA: the “PBM E-score” value stood at 0.0294.

For the sequence AGATGCAC, the “PBM E-score” value was -0.281.

CAAAGTCA: the “PBM E-score” value was determined as 0.0434.

For the sequence CTTGCCGC, the “PBM E-score” value is -0.132.

As to CTATTCGA, the “PBM E-score” value was -0.0524.

Take GAAGCTTC: the “PBM E-score” value was -0.265.

In the case of GAATTCAA, the “PBM E-score” value stood at 0.0163.

On to GGCATCCA, for which the “PBM E-score” value was -0.107.

For CCGAGGTA, the “PBM E-score” value came out at 0.242.

GGTTAGCA: the “PBM E-score” value amounted to 0.287.

On to AAAAATGC, for which the “PBM E-score” value was -0.0632.

With AAGCATTG, the “PBM E-score” value is -0.266.

Take GAACGGAC: the “PBM E-score” value is -0.203.

On to AGCCTTAA, for which the “PBM E-score” value is -0.0565.

Turning to AGGAGATC, the “PBM E-score” value was determined as 0.00265.

As to AACAAGTG, the “PBM E-score” value is -0.0556.

As to AAGGGTAC, the “PBM E-score” value was determined as 0.426.

For the sequence GTGGAGCA, the “PBM E-score” value is -0.141.

With AATCTTCA, the “PBM E-score” value turned out to be 0.16.

With CGACCCAC, the “PBM E-score” value was determined as 0.23.

In the case of AGGAAGCC, the “PBM E-score” value is -0.212.

For AGTATTCC, the “PBM E-score” value is -0.0642.

In the case of GCTCCGAA, the “PBM E-score” value was found to be 0.0279.

Take CAGCACTA: the “PBM E-score” value is -0.136.

For TGTCCACA, the “PBM E-score” value was found to be 0.203.

As for TATTTGCA, the “PBM E-score” value came to 0.0343.

Take AAGTATTG: the “PBM E-score” value turned out to be 0.0209.

With CCCAGTTC, the “PBM E-score” value was found to be 0.138.

As for GGAGCCGA, the “PBM E-score” value is -0.0801.

As to GTGTTTGA, the “PBM E-score” value turned out to be 0.216.

In the case of ACACTGAT, the “PBM E-score” value is -0.0013.

As for ATGGCGCA, the “PBM E-score” value was -0.0985.

As to CGATCGAA, the “PBM E-score” value amounted to 0.00527.

For the sequence AATCCGCG, the “PBM E-score” value was -0.146.

As for ACTATTTA, the “PBM E-score” value was determined as 0.0954.

Regarding CCTACCCG, the “PBM E-score” value worked out at 0.167.

Turning to CCAGTACC, the “PBM E-score” value turned out to be 0.183.

Consider GAGTAGTA, for which the “PBM E-score” value turned out to be 0.0341.

For CACATAGC, the “PBM E-score” value was -0.136.

For AGCCGGGG, the “PBM E-score” value was -0.27.

As to AGCTATGC, the “PBM E-score” value is -0.179.

With CAATGGCA, the “PBM E-score” value turned out to be 0.0406.

As for CATCTGAC, the “PBM E-score” value was -0.21.

Take CTACTTAC: the “PBM E-score” value is -0.0894.

For GCCGAACC, the “PBM E-score” value is -0.067.

GGTGGGAC: the “PBM E-score” value is -0.246.

On to AACAATTA, for which the “PBM E-score” value is 0.156.

AATTCTGT: the “PBM E-score” value is -0.0667.

For the sequence AACTATCC, the “PBM E-score” value was -0.0465.

Regarding ATTACACC, the “PBM E-score” value came to 0.117.

Regarding CTACGCAC, the “PBM E-score” value was -0.157.

Take CGTTACAC: the “PBM E-score” value was 0.0157.

GCGTTTCA: the “PBM E-score” value is -0.179.

In the case of GGTGTCCA, the “PBM E-score” value was determined as 0.211.

Turning to ACTGAAAG, the “PBM E-score” value worked out at 0.13.

As for CCCTTGGA, the “PBM E-score” value worked out at 0.217.

In the case of CCAGCGTA, the “PBM E-score” value is -0.109.

In the case of AGTCGCCG, the “PBM E-score” value was -0.116.

AAGTTGTC: the “PBM E-score” value was found to be 0.13.

As for CAGCTCGA, the “PBM E-score” value is -0.112.

Regarding GAAATCAC, the “PBM E-score” value came to 0.105.

Turning to AAAATTCT, the “PBM E-score” value was -0.0767.

For the sequence CTGTTCCC, the “PBM E-score” value is -0.135.

The values above are taken from the supplement of paper PMC3334620.
